Results published in PMC9911399, “Two distinct binding modes provide the RNA-binding protein RbFox with extraordinary sequence specificity”.
Positions count from the first letter of the chain named. The list shows a part of the results.

T1: RBFOX1 RRM RbFoxmut (Fox-RRM*) (Homo sapiens, UniProt Q9NWB1 109-208, R118D;E147R;N151S;E152T)
T1 sequence: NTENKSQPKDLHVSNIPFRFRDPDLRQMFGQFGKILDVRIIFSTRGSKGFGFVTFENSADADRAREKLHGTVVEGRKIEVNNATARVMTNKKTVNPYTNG

B1: GGACCAU (DNA:RNA)
RNA: GGGAGACCGGAAUUCAGAUUGUCCGGACCAUUUAAAUCCCGUCGUAGCCACCA
DNA 1: CAATCTGAATTCCGGTCTCCC
DNA 2: TGGTGGCTACGACGGGATT
B2: UGACCUC (DNA:RNA)
RNA: B1 RNA with G25U, A30U, U31C
DNA 1: CAATCTGAATTCCGGTCTCCC
DNA 2: TGGTGGCTACGACGGGATT
B3: UAUUCAC (DNA:RNA)
RNA: B1 RNA with G25U, G26A, A27U, C28U, U31C
DNA 1: CAATCTGAATTCCGGTCTCCC
DNA 2: TGGTGGCTACGACGGGATT
B4: ACCUAAA (DNA:RNA)
RNA: B1 RNA with G25A, G26C, A27C, C28U, C29A, U31A
DNA 1: CAATCTGAATTCCGGTCTCCC
DNA 2: TGGTGGCTACGACGGGATT
B5: UUACUCA (DNA:RNA)
RNA: B1 RNA with G25U, G26U, C29U, A30C, U31A
DNA 1: CAATCTGAATTCCGGTCTCCC
DNA 2: TGGTGGCTACGACGGGATT
B6: CCCACUA (DNA:RNA)
RNA: B1 RNA with G25C, G26C, A27C, C28A, A30U, U31A
DNA 1: CAATCTGAATTCCGGTCTCCC
DNA 2: TGGTGGCTACGACGGGATT
B7: AGGCUCG (DNA:RNA)
RNA: B1 RNA with G25A, A27G, C29U, A30C, U31G
DNA 1: CAATCTGAATTCCGGTCTCCC
DNA 2: TGGTGGCTACGACGGGATT
B8: GGAGUGC (DNA:RNA)
RNA: B1 RNA with C28G, C29U, A30G, U31C
DNA 1: CAATCTGAATTCCGGTCTCCC
DNA 2: TGGTGGCTACGACGGGATT
B9: AACCGAA (DNA:RNA)
RNA: B1 RNA with G25A, G26A, A27C, C29G, U31A
DNA 1: CAATCTGAATTCCGGTCTCCC
DNA 2: TGGTGGCTACGACGGGATT

biological target: T1, RBFOX1 RRM RbFoxmut (Fox-RRM*); assay: EMSA; HiTS-Eq, 1 nM pool, 10 min; buffer printed only for the single-RNA assays: 10 mM Tris pH 7.5, 150 mM NaCl, 3.4 mM EDTA, 0.001% NP-40, 30 C; conditions: tags: His6 N-terminal (pET28a); label: 5' 32P
How it was run: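 Purified RbFox RRM (wild type or mutant) was equilibrated for 10 min in 50 µL with 1 nM of a 5′-radiolabelled pool of RNA with 7 randomized nucleotides, its flanks annealed to DNA oligonucleotides, across increasing protein concentrations. Free RNA was separated by 8% native PAGE, excised, reverse-transcribed, PCR-barcoded and sequenced on an Illumina HiSeq 2500. Relative association constants came from read-count changes of each variant against the control reaction, normalised to the cognate motif.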

Binder	binding signal
B1	0.0501 KA relative to UGCAUGU
B2	0.0517 KA relative to UGCAUGU
B3	0.0947 KA relative to UGCAUGU
B4	0.107 KA relative to UGCAUGU
B5	0.123 KA relative to UGCAUGU
B6	0.115 KA relative to UGCAUGU
B7	0.206 KA relative to UGCAUGU
B8	0.146 KA relative to UGCAUGU
B9	0.109 KA relative to UGCAUGU
